The subject of series [1] is Candida albicans (isolate #98). Nature of the series: microbe, parasite or virus in culture. The note with it: pH 7.2.
Series [2] has as its system Candida albicans (SC5314). Description: microbe, parasite or virus in culture. The note with it: SC5314, pH 7.2.
Series [3] has as its system Candida albicans (isolate #AST97). Description: microbe, parasite or virus in culture. To be noted: pH 7.2.
Series [4] has as its system Candida dubliniensis (isolate #10). Description: microbe, parasite or virus in culture. The note with it: pH 7.2.
The test system of series [5] is Candida albicans (isolate #5). Description: microbe, parasite or virus in culture. The note with it: pH 7.2.
Series [6] concerns Candida albicans (isolate #4). Description: microbe, parasite or virus in culture. To be noted: pH 7.2.
The subject of the next series is Candida albicans. The note with it: concentration of Fluconazole, Ketoconazole or Itraconazole, alone or in combination; 1 hour 37° C. in 20 mM Tris-Cl, pH 7.2, 20 mM NaCl, then YPD 24 hours.
The subject of series [7] is Candida albicans (isolate #99). Description: microbe, parasite or virus in culture. The note with it: pH 7.2.
Series [8] has as its system Candida albicans (isolate #11). Nature of the series: microbe, parasite or virus in culture. The note with it: pH 7.2.
In series [9] the test system is Candida tropicalis (isolate #93). Nature of the series: microbe, parasite or virus in culture. The note with it: pH 7.2.
Series [10] relates to Candida albicans (isolate #28). Nature of the series: microbe, parasite or virus in culture. The note with it: pH 7.2.
For series [11], the system named is Candida albicans (isolate #77). Description: microbe, parasite or virus in culture. To be noted: pH 7.2.
The subject of series [12] is Candida albicans (isolate #3). Description: microbe, parasite or virus in culture. To be noted: pH 7.2.
Series [13] has as its system Candida albicans (isolate #77). The note with it: clinical isolate #77; 1 hour 37° C. in 10 mM NaCl/50 mM MOPS, pH 7.2, then YPD 24 hours 30° C.
For series [14], the system named is Candida albicans (isolate #AST97). The note with it: clinical isolate AST97 (blood culture); 1 hour 37° C. in 10 mM NaCl/50 mM MOPS, pH 7.2, then YPD 24 hours 30° C.
In the next series the test system is MRSAS. aureus (STRAIN 2). The note with it: clinical MRSA strain 2; 1 hour 37° C. in 10 mM NaCl/50 mM MOPS, pH 7.2, then YPD 24 hours 37° C.
Series [15] relates to Candida dubliniensis (isolate #10). To be noted: clinical isolate #10; 1 hour 37° C. in 10 mM NaCl/50 mM MOPS, pH 7.2, then YPD 24 hours 30° C.
Series [16] concerns Candida albicans (isolate #3). The note with it: clinical isolate #3; 1 hour 37° C. in 10 mM NaCl/50 mM MOPS, pH 7.2, then YPD 24 hours 30° C.
Series [17] relates to Candida albicans (isolate #5). To be noted: clinical isolate #5; 1 hour 37° C. in 10 mM NaCl/50 mM MOPS, pH 7.2, then YPD 24 hours 30° C.
The test system of series [18] is Candida tropicalis (isolate #93). To be noted: clinical isolate #93; 1 hour 37° C. in 10 mM NaCl/50 mM MOPS, pH 7.2, then YPD 24 hours 30° C.
Another series deals with Bacillus subtilis. Nature of the series: MIC, inhibition of cell growth. The note with it: lab strain; 1 hour 37° C. in 10 mM NaCl/50 mM MOPS, pH 7.2, then YPD 24 hours 37° C. In kind it is cell-based.
The next series has as its system MRSAS. aureus (STRAIN 1). To be noted: clinical MRSA strain 1; 1 hour 37° C. in 10 mM NaCl/50 mM MOPS, pH 7.2, then YPD 24 hours 37° C.
The test system of series [19] is Candida albicans (isolate #4). To be noted: clinical isolate #4; 1 hour 37° C. in 10 mM NaCl/50 mM MOPS, pH 7.2, then YPD 24 hours 30° C.
The next series relates to phosphorylated ERK 1, 2. To be noted: 50 μM, primary human foreskin epithelial cells.
In series [20] the test system is Primary human neonatal foreskin epithelial cells. To be noted: 50 μM, 18 and 36 hours.

≈ marks a conversion by molar mass, not a printed value. Like-named read-outs stand apart in the source and are kept apart here.

In the case of `CCC(C)n1ncn(-c2ccc(N3CCN(c4ccc(OCC5COC(Cn6cncn6)(c6ccc(Cl)cc6Cl)O5)cc4)CC3)cc2)c1=O` (stereo not shown) [ITRA, Itraconazole], the MIC in series [1] was not below 7.09 µM; in series [2] it was 3.1 µM (≈ 2.19 µg/mL); in series [3] it was 5.4 µM (≈ 3.81 µg/mL); in [4], not below 7.09 µM; in series [5], not below 7.09 µM; in series [6], not below 7.09 µM. The MIC was not below 7.09 µM in series [7]; 5.5 µM (≈ 3.88 µg/mL) in series [8]; not below 7.09 µM in [9]; not below 7.09 µM in [10]; not below 7.09 µM in series [11]; not below 7.09 µM in series [12]. Besides, the “MIC (azole)” value with Candida albicans was 0.71 µM.

As for `C[C@H](NC(=O)[C@H](Cc1c[nH]cn1)NC(=O)[C@H](CO)NC(=O)[C@@H](N)CC(=O)O)C(=O)N[C@@H](CCCCN)C(=O)N[C@@H](CCCNC(=N)N)C(=O)N[C@@H](Cc1c[nH]cn1)C(=O)N[C@@H](Cc1c[nH]cn1)C(=O)NCC(=O)N[C@@H](Cc1ccc(O)cc1)C(=O)N[C@@H](CCCCN)C(=O)N[C@@H](CCCNC(=N)N)C(=O)N[C@@H](CCCCN)C(=O)N[C@@H](Cc1ccccc1)C(=O)N[C@@H](Cc1c[nH]cn1)C(=O)N[C@@H](CCC(=O)O)C(=O)N[C@@H](CCCCN)C(=O)N[C@@H](Cc1c[nH]cn1)C(=O)N[C@@H](Cc1c[nH]cn1)C(=O)N[C@@H](CO)C(=O)N[C@@H](Cc1c[nH]cn1)C(=O)N[C@@H](CCCNC(=N)N)C(=O)NCC(=O)N[C@@H](Cc1ccc(O)cc1)C(=O)O` [H5], the MIC (in series [13]; in [14]; in the series on MRSAS. aureus (STRAIN 2); in series [15]; in series [16]; in series [17]) was more than 350 µM each time. Besides, the MIC (in [18]; in the series with Bacillus subtilis; against MRSAS. aureus (STRAIN 1); in [19]) was more than 350 µM each time.

As for `C[C@@H]1[C@H](O)[C@@H](C)/C=C/C=C/C=C/C=C/C=C/C=C/C=C/[C@H](O[C@@H]2O[C@H](C)[C@@H](O)[C@H](N)[C@@H]2O)C[C@@H]2O[C@](O)(C[C@@H](O)C[C@@H](O)[C@H](O)CC[C@@H](O)C[C@@H](O)CC(=O)O[C@H]1C)C[C@H](O)[C@H]2C(=O)O` [AMP-b, Amphoteracin-h], the MIC is 4.5 µM (≈ 4.16 µg/mL) in [14]; 5.4 µM (≈ 4.99 µg/mL) in series [15]; 0.6 µM (≈ 0.554 µg/mL) in [16]; 3.2 µM (≈ 2.96 µg/mL) in series [17]; “≧6.5 uM” in series [18]; 4.5 µM (≈ 4.16 µg/mL) in series [19].

On to `CC(=O)N1CCN(c2ccc(OCC3COC(Cn4ccnc4)(c4ccc(Cl)cc4Cl)O3)cc2)CC1` (stereo not shown) [KETO, Ketoconazole], for which the MIC in [1] is 6.2 µM (≈ 3.29 µg/mL); in [2] it was 5.5 µM (≈ 2.92 µg/mL); in series [3], 1.2 µM (≈ 0.638 µg/mL); in series [4], not below 9.41 µM; in series [5], not below 9.41 µM; in series [6], not below 9.41 µM. For the same compound, the MIC was 6.2 µM (≈ 3.29 µg/mL) in series [7]; 3.4 µM (≈ 1.81 µg/mL) in [8]; not below 9.41 µM in series [9]; not below 9.41 µM in series [10]; not below 9.41 µM in series [11]; not below 9.41 µM in [12]. Also, in the series on phosphorylated ERK 1, 2, the “ERK 1, 2 activation compared to control” value is recorded as “Significant inhibition of ERK 1, 2 activation”. For the same compound, the “cell morphology after treatment” value in [20] was “morphologically normal except when treated with ketoconazole”.

On to `OC(Cn1cncn1)(Cn1cncn1)c1ccc(F)cc1F` [FLU, Fluconazole], for which the MIC in [1], in series [2], in series [3], in series [4], in series [5] and in series [6] was not below 97.9 µM in each case. In addition, the MIC in [7], in series [8], in series [9], in series [10], in series [11] and in series [12] was not below 97.9 µM throughout.

The record behind these values is US20100173833A1, “METHODS AND COMPOSITION FOR USE OF CYCLIC ANALOGUES OF HISTATIN” (priority 2007, published 2010).
